Where two headings read alike, the source gives them in different places.
Experiments:
[1] = tested on: VN-MCC and VP-MCC cell lines and HaCaT; assay: cells; conditions: Homo sapiens, read-out: average IC50
[2] = tested on: VN-MCC and VP-MCC cell lines and HaCaT
[3] = tested on: HaCaT immortalized keratinocytes
[4] = VN-MCC, VP-MCC and HaCaT cell lines, CellTiterGlo, 3 days
[5] = based on average IC50 for VP and VN cell lines
[6] = VP-MCC versus VN-MCC average IC50

CC(C)C[C@H](NC(=O)[C@H](Cc1ccccc1)NC(=O)c1cnccn1)B(O)O [Bortezomib]
IC50 [1]: 11 nM

COc1cc([C@@H]2c3cc4c(cc3[C@@H](O[C@@H]3O[C@@H]5CO[C@@H](C)O[C@H]5[C@H](O)[C@H]3O)[C@H]3COC(=O)[C@H]23)OCO4)cc(OC)c1O [Etoposide]
differential effect on cell viability across cell lines (in words) [2, 4]: potently reduced viability of MCC13, but not the other VN-MCC cells and was active against all of the VP-MCC cell lines | Selectivity [2, 5]: VP (selectivity for VP-MCC cells which was defined as having an average IC50 < 50% of the VN-MCC average IC50)

Cc1[nH]c2ccccc2c1CCNCc1ccc(/C=C/C(=O)NO)cc1 [Panobinostat]
Selectivity [2, 5]: VP (selectivity for VP-MCC cells which was defined as having an average IC50 < 50% of the VN-MCC average IC50)

CC1(C)CCC(c2ccc(Cl)cc2)=C(CN2CCN(c3ccc(C(=O)NS(=O)(=O)c4ccc(N[C@H](CCN5CCOCC5)CSc5ccccc5)c(S(=O)(=O)C(F)(F)F)c4)cc3)CC2)C1 [Navitoclax]
differential effect on cell viability across cell lines (in words) [2, 4]: significantly higher potency against VP-MCC cell lines with minimal effects on VN-MCC cells and an intermediate potency against HaCaT cells

CC1=CC(=O)c2c(O)cccc2C1=O [Plumbagin]
effect on HaCaT control cells ([3]; up to 10 µM): no effect | VP-MCC selectivity based on average IC50 values [2, 6]: > fivefold | Selectivity [2, 5]: VP (key: selectivity for VP-MCC cells which was defined as having an average IC50 < 50% of the VN-MCC average IC50)

CCN(CC)C(=S)SSC(=S)N(CC)CC [Disulfiram]
Selectivity [2, 5]: Non

CC[C@](C)(O)C(=O)O[C@H]1C(=O)O[C@@H]2C[C@H]3C(C)=C[C@H](O)[C@@H](O)[C@]3(C)[C@H]3[C@]4(O)OC[C@]32[C@@H]1[C@@H](C)[C@H]4O [Glaucarubin]
Selectivity [2, 5]: VP (key: selectivity for VP-MCC cells which was defined as having an average IC50 < 50% of the VN-MCC average IC50)

Cc1c(O)c(O)c2c(c1O)C(=O)C(Cl)=C(Cl)C2=O [NSC369976]
effect on HaCaT control cells ([3]; up to 10 µM): no effect | VP-MCC selectivity based on average IC50 values [2, 6]: > fivefold

C[C@@H]1C[C@H](C)C[C@H](C)[C@@H](O)CC(=O)O[C@H]([C@@H]2CCC[C@H]2C(=O)O)C/C=C/C=C(/C#N)[C@H](O)[C@@H](C)C1 [Borrelidin]
differential effect on cell viability across cell lines (in words) [2]: some specificity for VN-MCC cells | Selectivity [2, 5]: Uncertain^b

S=C(S)N1CCCC1 [Pyrrolidinedithiocarbamate]
differential effect on cell viability across cell lines (in words) [2, 4]: similarly effective for VN-MCC and VP-MCC cell lines | differential effect on cell viability across cell lines (in words) ([2]; VN-MCC, VP-MCC and HaCaT cell lines, CellTiterGlo, 3 days, listed as PDTC): equipotent against VP-MCC and VN-MCC cells | Selectivity [2, 5]: Non

Nc1nc(Cl)nc2c1ncn2[C@@H]1O[C@H](CO)[C@@H](O)[C@@H]1F [Clofarabine]
Selectivity [2, 5]: Non

C/C=C(/C)C(=O)O[C@H]1C(C)=C2[C@H]([C@@H]1OC(=O)CCCCCCC)[C@@](C)(OC(C)=O)C[C@H](OC(=O)CCC)[C@@]1(O)[C@H]2OC(=O)[C@@]1(C)O [Thapsigargin]
Selectivity [2, 5]: Non?^c

Cc1cc(Nc2ncc3c(n2)N(C)C(=O)N(c2cc(NC(=O)c4cccc(C(F)(F)F)c4)ccc2C)C3)n(C)n1 [pluripotin, Pluripotin]
differential effect on cell viability across cell lines (in words) [2]: preferentially affected VN-MCC and HaCaT cells with little effect on the viability of VP-MCC cells

Furoxanobenzofuroxan
effect on HaCaT control cells [3]: no effect | Selectivity [2]: VP (key: selectivity for VP-MCC cells which was defined as having an average IC50 < 50% of the VN-MCC average IC50) | VP-MCC selectivity based on average IC50 values [2]: > fivefold

CCOC(C)C(C=NNC(N)=S)=NNC(N)=S (stereo not drawn) [Gloxazone, 3-ethoxy-2-oxobutyraldehyde bis(thiosemicarbazone)]
differential effect on cell viability across cell lines (in words) [2, 4]: similarly effective for VN-MCC and VP-MCC cell lines | Selectivity [2, 5]: Non

Oc1ccc(/C=N/NC(=S)Nc2cccnc2)nc1 [NSC185065]
differential effect on cell viability across cell lines (in words) [2]: similarly effective for VN-MCC and VP-MCC cell lines

Nc1nc(Cl)nc2c1ncn2[C@H]1C[C@H](O)[C@@H](CO)O1 [Cladribine]
differential effect on cell viability across cell lines (in words) [2, 4]: similarly effective for VN-MCC and VP-MCC cell lines | differential effect on cell viability across cell lines (in words) ([2]; VN-MCC, VP-MCC and HaCaT cell lines, CellTiterGlo, 3 days, listed as cladribine): inactive against MCC26, but active against all of the other MCC lines | Selectivity [2, 5]: Non

CO[C@@]12[C@H](COC(N)=O)C3=C(C(=O)C(C)=C(N)C3=O)N1C[C@@H]1N[C@@H]12 [Mitomycin C]
Selectivity [2, 5]: VP (selectivity for VP-MCC cells which was defined as having an average IC50 < 50% of the VN-MCC average IC50)

O=Nc1ccc(O)c2ncccc12 [5-Nitroso-8-hydroxyquinoline]
effect on HaCaT control cells ([3]; up to 10 µM): no effect | VP-MCC selectivity based on average IC50 values [2, 6]: > fivefold | Selectivity [2, 5]: VP (selectivity for VP-MCC cells which was defined as having an average IC50 < 50% of the VN-MCC average IC50)

Source: paper PMC8245553, “Identification of natural product modulators of Merkel cell carcinoma cell growth and survival” (Scientific Reports, 2021)
